# Results from the supplement of paper PMC11417369.
# ± gives the standard deviation of the averaged measurements. The list shows a part of the results.
# System: PfAP2-I AP2 domain 3 (GST-tagged)
# Assay: gcPBM binding intensity (ln(normalized median fluorescence intensity)); higher = stronger DNA binding
# Procedure, shortened: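 GST-fused DNA-binding domains of P. falciparum, expressed in E. coli, were applied at about 25 μg on average for 1 h to an Agilent 4 × 180k array of primer-extended double-stranded 36-bp intergenic genomic probes and negative controls. Binding intensity is the highest Masliner-normalised natural-log median intensity across replicate spots of either probe orientation, measured with Alexa488 anti-GST antibody and a 488 nm scan.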
row,Sequence,gcPBM binding intensity (ln)
1,GAAATTAAATGACATACACACTATATTATATATTTT [CACACA_site5693],7.67 ± 0.51
2,TAGATAGATTAAAATACATGCATATTATTAAAAAAT [TGCATGCA_site739],7.68 ± 0.57
3,AATCATAAACATTATGCACACAAAAATAAAAAAAAA [CACACA_site8289],9.81 ± 0.11
4,TATCTTCAATGTGAAAGTACTTAAATTGTTATAAAA [XGTACX_site2586],7.75 ± 0.52
5,ATTTAATGTATTTTGCGTACGAATTATTTTATTTCA [XGTACX_site7331],7.93 ± 0.49
6,AGCATAAAAATGATATGTACATATATATATATATAT [XGTACX_site2836],9.34 ± 0.43
7,CATACATACATACATACACACATACATATGTATATA [CACACA_site7216],8.85 ± 0.59
8,TGGAATAAAAAAAGGAGTACAATTAATTATTCTTAA [XGTACX_site8299],7.92 ± 0.092
9,TATATATATATATATGTGCACATATTTATATGTTTT,9.85 ± 0.22
10,GTTGTGTAATTCGTAACACACATAAAATATATATAA [CACACA_site6059],7.76 ± 0.48
11,ATATAGTTCGATATAGTTAGTATGAATTGAAAAATA [CACACA_negctrl_site1826],7.43 ± 0.54
12,AAAAAAATAAAACACACACACAAAAAAATAAAAATA [CACACA_site465],7.79 ± 0.76
13,TTTTTAAAATATTTAACACACAATTTTAATGCATAA [CACACA_site6036],8.8 ± 0.11
14,TTTTCATTTTTTTTTTTTTTTTTTTTTCTTTTTTTT [CACACA_negctrl_site1312],7.43 ± 0.31
15,ATTTCTTTAATATACACACACCAAAACAAAAAAAAA [CACACA_site6416],8.21 ± 0.42
16,ATTTGTTCATTTGGTTGTACATAATTTATTTTTATA [XGTACX_site785],7.88 ± 0.63
17,TACATTAACGGATTATTTCTCAATACAACATCATTT [CACACA_negctrl_site981],7.5 ± 0.47
18,GTTTGTATGTCCAAATGTACATATGATTTTATGAAA [XGTACX_site6595],7.93 ± 0.4
19,AAAATTAAAAATTACTGTACGTATTAGAGAATAAAT [XGTACX_site2567],7.74 ± 0.5
20,AAAAAATATTGAAGTACACACATTATAAACTTTTTT [CACACA_site5029],7.75 ± 0.46
21,ACCTAATTCAAATACAGTACATATACAATATATATA [XGTACX_site2779],8.11 ± 0.79
22,AAAATATTAATTAATACATGCATATATATATATATA [TGCATGCA_site585],9.4 ± 0.61

row,Sequence,gcPBM binding intensity (ln)
1,TATATTGTATAAAAATGTACATGCAATAAATTTAGT [XGTACX_site5621],8.69 ± 0.45
2,TATATTATAATAAGACGTACAAGGATGTTAAAACTT [XGTACX_site5828],7.92 ± 0.57
3,TTAATTATGGACAGGGTGCACATGAATAATAATACC,11 ± 0.18
4,ATACTAAATGAACACACACACATATATATATATAAT [CACACA_site4232],8 ± 0.53
5,AACAGACATAGAAACACACATACATACATACATACA [CACACA_site2479],8.96 ± 0.45
6,AAATAAATATATAATACACACAAAAATATAAAATGG [CACACA_site5943],8.06 ± 0.53
7,TATAACTTTTTTATTACACACCTATGTAATATTATA [CACACA_site944],7.95 ± 0.3
8,ATGTTTTATATTTTTTTTTTGTTTGCTTGTTTCCTC [CACACA_negctrl_site870],7.78 ± 0.83
9,AAGGGAAATATTGAAACACACACGAACCCACGTATT [CACACA_site252],7.67 ± 1.1
10,TTATAATATTAATGTGCACACAATTAAAATATTATA [CACACA_site2046],10.6 ± 0.26
11,TACTGTGTTTTGGTTGTACACACGCTACATTATATA [CACACA_site8863],8.27 ± 0.59
12,TTCTTAAATGTAAATGTATATGTATTAAAAAGAGAA [TGCATGCA_negctrl_site597],7.87 ± 0.49
13,ATAGTATACAGACACACACACACACCCATATATATA [CACACA_site1736],8.25 ± 0.88
14,AGGATATAAATATTCACACACACATGGAGATATATA [CACACA_site6317],7.64 ± 0.5
15,TATACATTTATGTACACACACATATATGTATATTTA [CACACA_site2966],7.67 ± 0.37
16,AATAAATATCAATACACACACACAAAAGTGAATAAA [CACACA_site3763],7.67 ± 0.59
17,ACAATTTTATTTAAAGTGCATGTAAAATTAAAACTT,9.11 ± 0.3
18,AAAGGAAGAAAAAATAGTACATATATATATATATAA [XGTACX_site766],7.88 ± 0.4
19,GTTAAGGGTATATATACACACATATGTAATACATGA [CACACA_site5650],7.83 ± 0.6
20,TCCATCCACATATATGTACACACATATATATATATA [CACACA_site8970],9.31 ± 0.61
21,ACATGTGAAGGGAACATAAATTGGGGTTTTATATTG [XGTACX_negctrl_site508],7.95 ± 0.75
22,AAATTATAAATAATTTGTACATAAAAATTGGTAAAG [XGTACX_site5197],7.7 ± 0.64
